# Experimental data from PubChem BioAssay AID2101 (National Center for Advancing Translational Sciences (NCATS), 2009).
# The whole screen tested about 330,000 compounds, of which about 300 (0.091%) were called active. Inconclusive results, whose numbers are uncertain, are shown with a selection of clear calls. Calls follow the shape of the dose curve; as a rule, active = well fitted inhibition curve with a large enough effect; inconclusive = small, poorly fitted or top-dose-only effect, or effect the other way, or another doubt; inactive = no such curve, though single readings can be large or run the other way. No potency is given beside an inconclusive call; the fits are too rough.
# Biological target: Lysosomal acid glucosylceramidase (Homo sapiens) (UniProt P04062)
# Experiment: qHTS Assay for Inhibitors and Activators of N370S glucocerebrosidase as a Potential Chaperone Treatment of Gaucher Disease;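 as to activity change, negative = inhibition: 0% = full enzyme activity and -100% = no enzyme basal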
# Conditions: N370S GC spleen homogenate, 4MU-glucoside fluorescence; activity change, negative = inhibition: at 59.4 µM (top of the series) unless noted
# Potency is read from the fitted curve at half-maximal effect.
Compound,Potency,"activity change, negative = inhibition"
CNC(=O)c1ccc(Nc2nnc(-c3ccc(O)cc3)c3ccccc23)cc1,"inconclusive [inhibitor, partial curve]",–
CCN(CC)CCN(Cc1cc2cc3c(cc2[nH]c1=O)OCO3)C(=S)NCCCOC,"inconclusive [activator, single point]",–
O=C(NCc1ccc2c(c1)OCO2)C1CCN(c2nccc(C(F)(F)F)n2)CC1,"inconclusive [inhibitor, single point]",–
c1ccc(Nc2nc(-c3ccoc3)nc3ccccc23)cc1,active: 12.6 µM,–
COc1cc2nc(N(C)CCCNC(=O)C3CCCO3)nc(N)c2cc1OC (stereo not drawn),"inconclusive [activator, partial curve]",–
Cc1cccc(NC(=O)Nc2ccc(OCc3ccccc3)cc2)n1,"inconclusive [activator, full curve]",–
O=C(CCC1CCCN(C(=O)CCC(F)(F)F)C1)NCc1ccc(F)c(F)c1 (stereo not drawn),"inconclusive [activator, single point]",–
Cc1c(CCC(=O)O)c(=O)n2c([nH]c3ccccc32)c1C#N,"inconclusive [activator, partial curve]",–
O=C(NCc1ccccc1)C1CCN(c2nc(-c3ccccc3)nc3c2CCC3)CC1,"inconclusive [inhibitor, partial curve]",–
O=C(CCCN1C(=O)/C(=C/c2cccc(Br)c2)SC1=S)Nc1cccnc1,"inconclusive [inhibitor, single point]",–
CCOC(=O)c1sc2nc3c(SCCC#N)cc(C(=O)c4cc(F)ccc4O)cn3c(=O)c2c1C,–,inactive: -6.36%
COCCCNCCCOc1ccc(C(C)(C)c2ccccc2)cc1,–,inactive: -9.34%
CC(Oc1ccc(Cl)cc1)c1ccnn1S(C)(=O)=O (stereo not drawn),"inconclusive [activator, single point]",–
N#CC(Cc1ccc(O)c(O)c1)C(=O)N1CCc2ccccc21 (stereo not drawn),–,inactive: -6%
C=CCN(c1ccccc1)S(=O)(=O)c1cccc(C(=O)Oc2ccc3c(C)cc(=O)oc3c2)c1,"inconclusive [activator, partial curve]",–
O=C(Nc1ccc(Cl)cn1)Nc1ccccc1Cl,"inconclusive [activator, full curve, poor fit]",–
O=C(NC1C2CC3CC(C2)CC1C3)c1ccc2c(c1)OCO2 (stereo not drawn),"inconclusive [activator, single point]",–
O=S(=O)(/C=C/c1ccccc1)NC1CCCCCCC1,"inconclusive [activator, partial curve, poor fit]",–
CN1CCN(Cc2c(O)ccc3cc(-c4ccccn4)c(=O)oc23)CC1,"inconclusive [activator, single point]",–
C=CCOC(=O)CN1C(=O)c2ccccc2C1=O,–,inconclusive: 30.2% [activator]
CC[C@H]1C(c2ccccc2)=NN(c2ccccc2)[C@@H]1CO,"inconclusive [activator, partial curve]",–
Cc1ccc(-c2csc(NC(=O)CSc3nc4ccccc4[nH]3)n2)cc1,"inconclusive [activator, partial curve]",–

Compound,Potency,"activity change, negative = inhibition"
CN(C)CC(O)Cn1c2ccc(Br)cc2c2cc(Br)ccc21 (stereo not drawn),"inconclusive [inhibitor, single point]",–
Cc1ccc(C)c(NNC(N)=S)c1,–,inactive: 1.93%
Cc1[nH]nc(-c2ccc(OCc3cnn(-c4ccccc4)c3)cc2O)c1Oc1ccc(Cl)cc1,"inconclusive [activator, partial curve]",–
CCC1CCCCN1S(=O)(=O)c1ccc(C(=O)N(CCCN(C)C)c2nc3cc4c(cc3s2)OCO4)cc1 (stereo not drawn),"inconclusive [inhibitor, partial curve]",–
O=C(O)c1ccc(N=Cc2c(O)ccc3oc4c(c23)CCCC4)cc1,–,inactive: 17.7%
O=C(Nc1ccc(Cl)cc1C(=O)Nc1ccncc1)c1ccco1,–,inconclusive: 41.4% [activator]
CC(O)c1nc2ccccc2n1CCOc1ccccc1 (stereo not drawn),–,inconclusive: 29.2% [activator]
CCN(CC)S(=O)(=O)c1cccc(NC(=O)COC(=O)/C=C/c2cccs2)c1,"inconclusive [activator, partial curve]",–
Nc1nccnc1C(=O)OCC(=O)N1CCN(S(=O)(=O)c2ccc(Cl)cc2)CC1,"inconclusive [activator, single point]",–
N#Cc1cn(Cc2ccccc2)c2ccccc12,"inconclusive [activator, single point]",–
CN(C)c1oc(-c2ccccc2Cl)nc1S(=O)(=O)c1ccccc1,"inconclusive [activator, single point]",–
Cc1ccc(Cn2c(C3CCCN3c3nc(C)cs3)nc3cc(C(F)(F)F)ccc32)cc1 (stereo not drawn),"inconclusive [activator, single point]",–
Cc1ccc(S(=O)(=O)/C(C#N)=C/c2c(N3CC(C)OC(C)C3)nc3c(C)cccn3c2=O)cc1 (stereo not drawn),"inconclusive [activator, partial curve]",–
COc1cc(OC)c2c(c1)OC(=O)CC2c1ccc2c(c1)OCO2 (stereo not drawn),"inconclusive [activator, single point]",–
Cc1csc2ncc(C(=O)NCc3ccco3)c(=O)n12,"inconclusive [activator, partial curve]",–
COc1cccc(CCc2ccccc2OCC[C@@H]2C[C@@H](O)CN2C)c1,–,inactive: -27.6%
COc1ccccc1/C=N/NC(=O)NC12CC3CC(CC(C3)C1)C2,"inconclusive [activator, full curve]",–
O=c1oc2ccccc2n1CSc1nc2ccccc2s1,–,inactive: 4.42%
CCOC(=O)C(Sc1nn(C)c(=S)s1)C(C)=O (stereo not drawn),"inconclusive [activator, partial curve, poor fit]",–
Cc1cccc(NC(=O)c2nc[nH]c2C(=O)N[C@@H](CC(C)C)C(=O)OC(C)(C)C)c1,"inconclusive [activator, partial curve]",–
O=C(C1=C[C@@H](c2csc3ccccc23)C[C@@H](OCCCCO)O1)N1CCN(Cc2ccc3c(c2)OCO3)CC1,"inconclusive [inhibitor, partial curve, poor fit]",–
